# Assay results: the supplement of paper PMC10185492
# The other results are listed elsewhere or left out. Values come from read counts of a selection and are noisy.
# Tested on: SARS-CoV-2 3CLpro (nsp5)
# Test: substrate phage enrichment score (protease-eluted vs HEPES control, +1 offset) (ratio); higher = better cleaved substrate
# Details: selection round: 3; protease elution time: 0.5 h
# Experimental: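 Random heptapeptide substrate phage display (M13 pIII fusion, heptapeptide between an N-terminal biotinylated AviTag GLNDIFEAQKIEWHE and pIII; phages immobilised on streptavidin) eluted by cleavage with 50 nM protease in 20 mM HEPES at 37 °C. Selected phages were NGS sequenced, and the enrichment score is (reads in protease sample + 1)/(reads in HEPES blank-selection control + 1).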
row,Substance,substrate phage enrichment score
1,QHFQGGS,0.724
2,QELLLHS,6.67
3,TQAAHHH,1.27
4,WRPIGKQ,20.4
5,KPYFQGG,0.846
6,VITRPQG,1.3
7,QSRLATQ,4
8,NTKRRPP,> 33
9,VTKSEAQ,> 53
10,LPRCSLC,8
11,VYFQGGS,1.73
12,AAAHHHN,1.15
13,DQQRANY,3.38
14,TEYKVNC,> 42
15,PEQIESY,17
16,INATDRR,0.2
17,DFQGGSA,0.743
18,ASHKSSL,> 36
19,CSCTHTK,1.5
20,HAKHMTE,10.5
21,SRLQSYQ,> 51
22,RENLNPT,> 24
23,TSMNGQR,5
24,SGCSWAQ,16

row,Substance,substrate phage enrichment score
1,STTVQMQ,> 33
2,PMSHGLM,2.14
3,HAAAHHH,1.01
4,GLYFQGG,2.24
5,SAAAHRH,0.6
6,SNVPVML,> 23
7,SAAPHQH,0.786
8,LTTGDDS,0.875
9,TRPKGEK,> 32
10,APYGPRG,10
11,WTDRVEC,6.33
12,MKHACQT,> 25
13,EAAAHHH,1.05
14,SLSGNPN,> 30
15,THPEWPW,2.24
16,VSERTPH,> 85
17,SGQVTLQ,> 48
18,VYRLPHR,13.5
19,SKRGANG,7
20,SAASSRQ,> 23
21,ANIPPSK,> 33
22,LSKRDRC,2.45
23,VPSTRLQ,> 62
24,SRISPTK,1.36

row,Substance,substrate phage enrichment score
1,KCTAGEK,4
2,RNSSRTA,> 40
3,EVGLPQA,7.33
4,ELRLTTR,4.27
5,SESAQWG,2.44
6,PLSPHNQ,> 25
7,WPCALQC,> 199
8,PPKVRLQ,14.8
9,DDVNWPD,2.67
10,KGTLTPP,11.5
11,SNFTSGQ,0.706
12,NAAAHHH,1.01
13,VSVLQSS,> 41
14,AQTRIEN,0.696
15,ARPMGGR,0.865
16,NASSLQS,> 38
17,PTLPILQ,> 54
18,AVREHRQ,2.18
19,NTLTNLQ,> 21
20,HSAAAHH,0.649
21,RTSPTYM,> 21
22,LSNDRGQ,> 33
23,VSHCENN,4.83
24,TQSPTYV,> 24

row,Substance,substrate phage enrichment score
1,YHHHHGA,0.778
2,TNASVIQ,> 30
3,STVRSKE,> 26
4,YESGVIE,> 22
5,RPTCRIQ,3.39
6,QLSPNKA,6
7,HPIGTRT,> 36
8,VLRHGQE,3.83
9,RYLPGLQ,10
10,AARSMLQ,> 26
11,GTAAHHH,1.04
12,EKCTKLQ,> 47
13,SEITTLQ,> 90
14,NPAAHHH,1.04
15,PQTDHDR,3.6
16,EIYLHLR,2.83
17,LPSGHSL,1.43
18,HTMPNLQ,> 69
19,TERTTLQ,> 57
20,NRAPRLQ,> 60
21,KEVQGPE,> 26
22,ALTRPGQ,> 41
23,AETNCSR,2
24,WAHSSQR,> 23

row,Substance,substrate phage enrichment score
1,PGSCLKT,1.33
2,DTYTRMH,4
3,MGSCVLH,8.83
4,VNAAHPQ,1.46
5,PETCRSM,13.3
6,ARHTELQ,> 72
7,ELNFQGG,1.79
8,TGEQGCT,12.5
9,RVAPTRA,0.222
10,PKAELKK,6.33
11,LNGQEDH,> 26
12,QLSRPAV,0.933
13,KTAAHHH,0.917
14,CPQANFQ,11.8
15,RKNAVLQ,> 116
16,IAATPSK,19.5
17,PYLPTQP,> 28
18,VPNELLK,> 26
19,SQGVKLQ,> 55
20,AAECRHG,> 23
21,PVRAHLQ,> 23
